For five compounds, GI50 and TGI results are on record in PubChem BioAssay (NCI).

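Briefly, cells in 96-well plates were exposed to five compound concentrations for 48 h, and endpoints were estimated by linear interpolation. GI50 is the concentration that inhibits growth by half. Definition used: TGI = concentration required for complete inhibition of growth.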

The assay concerns NCI-H322M lung. The assay can be described thus: DTP human tumour cell line panel, 48 h.
On to `Nc1nc(N)c2c(n1)NC(c1ccc(C(F)(F)F)cc1)CC(c1ccc(Nc3nc(NCCO)nc(Nc4ccc(Cl)cc4)n3)cc1)=N2` (stereo not given), for which the GI50 is 1.66 µM and the TGI was 3.06 µM.
Taken in the same sequence, the figures for `CS(=O)(=O)Nc1cc(-c2ccc3ncc(C#N)c(NCc4ccccc4)c3c2)cnc1Cl` were 0.402 µM and 7.9 µM.
On to `C[C@]12CC[C@H](O)C[C@@H]1CC[C@@H]1[C@@H]2CC[C@@]2(C)[C@H]1CC[C@@H]2[C@](C)(O)CCc1ccc(F)cc1`, for which the GI50 was 10.7 µM and the TGI is 25.5 µM.
Taken in the same sequence, the figures for `Cc1nn(-c2ccccc2)cc1/C=N/Nc1nc(Nc2ccccc2)nc(Nc2ccc(S(N)(=O)=O)cc2)n1` were 2.44 µM and 5.98 µM.
The matching figures for `O=C1Nc2cc(OC(F)(F)F)ccc2Oc2ccc(-c3ccnc(N4CC[C@H](O)C4)c3)cc21`: 0.0795 µM and 14 µM.
